Data published in paper PMC4336329 (PLoS ONE, 2015).
Screen size: about 310,000 compounds; about 14,000 (4.5%) showed an effect of 50% or more. The effect is printed as a negative number. The list shows a part of the results.

What follows are molecules tested against human ether-à-go-go-related gene (hERG) potassium channel (human, UniProt Q12809) (assay: primary screen, population patch clamp on CHO cells stably expressing hERG).
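Also: peak tail current of the secondary pulse compared with the same well before compound.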

human ether-à-go-go-related gene (hERG) potassium channel, sequence (Q12809 whole entry, looked up): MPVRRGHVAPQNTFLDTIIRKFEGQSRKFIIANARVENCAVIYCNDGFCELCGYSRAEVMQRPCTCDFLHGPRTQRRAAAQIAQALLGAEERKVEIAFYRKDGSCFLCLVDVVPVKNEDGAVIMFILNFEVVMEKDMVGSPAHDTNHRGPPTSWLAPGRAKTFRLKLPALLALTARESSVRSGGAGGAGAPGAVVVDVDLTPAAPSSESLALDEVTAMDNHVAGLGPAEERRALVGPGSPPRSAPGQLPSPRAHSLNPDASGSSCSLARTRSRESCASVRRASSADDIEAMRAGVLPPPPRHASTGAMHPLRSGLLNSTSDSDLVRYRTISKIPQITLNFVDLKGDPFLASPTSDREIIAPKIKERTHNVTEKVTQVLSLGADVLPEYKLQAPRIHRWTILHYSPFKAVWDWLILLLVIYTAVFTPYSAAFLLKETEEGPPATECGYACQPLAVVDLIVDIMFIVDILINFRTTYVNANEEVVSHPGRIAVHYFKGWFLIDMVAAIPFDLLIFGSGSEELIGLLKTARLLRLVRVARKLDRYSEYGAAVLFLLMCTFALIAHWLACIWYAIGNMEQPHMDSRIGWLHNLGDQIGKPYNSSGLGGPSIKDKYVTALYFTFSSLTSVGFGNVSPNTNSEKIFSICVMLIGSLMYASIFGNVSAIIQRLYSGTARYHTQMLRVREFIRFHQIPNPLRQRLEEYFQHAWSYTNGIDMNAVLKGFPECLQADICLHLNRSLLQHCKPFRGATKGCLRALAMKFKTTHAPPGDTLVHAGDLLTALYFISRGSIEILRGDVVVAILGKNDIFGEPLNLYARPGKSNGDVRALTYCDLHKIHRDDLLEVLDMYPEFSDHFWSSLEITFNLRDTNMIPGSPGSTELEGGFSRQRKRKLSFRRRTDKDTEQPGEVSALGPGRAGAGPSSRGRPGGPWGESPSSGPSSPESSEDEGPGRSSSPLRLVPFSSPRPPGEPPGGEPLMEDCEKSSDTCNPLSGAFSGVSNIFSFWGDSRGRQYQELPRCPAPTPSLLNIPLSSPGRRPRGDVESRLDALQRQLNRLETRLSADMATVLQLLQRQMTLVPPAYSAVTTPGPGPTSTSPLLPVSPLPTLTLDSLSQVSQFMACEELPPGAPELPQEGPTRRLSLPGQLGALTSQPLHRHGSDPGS

Compound | hERG current change (%, negative = inhibition) at 10uM
CCCC1(C(=O)OC)NC(c2cc(OC)c(OC)c(OC)c2)C2C(=O)N(CC)C(=O)C21 (stereo not shown) | 8.33%
O=S(=O)(NC1CCCC1)c1ccc(S(=O)(=O)N(Cc2cccs2)CC2CCCO2)cc1 (stereo not shown) | 0.161%
CCNC(=O)CSc1nnc(-c2ccccc2Br)n1-c1cccc(C(F)(F)F)c1 | -14%
COc1ccc(N/C(=N\c2nc(C)cc(C)n2)NC(C)=O)cc1OC | 9.69%
CC1CN(C(=O)c2cc3cc(Cl)ccc3[nH]2)CC(C)O1 (stereo not shown) | -7.59%
COc1ccc2[nH]c3c(c2c1)CCNC3c1ccc([N+](=O)[O-])o1.Cl (stereo not shown) | -32.9%
Cc1ccc(-n2c(Cc3cccn3C)nnc2SCC(N)=O)cc1 | 1.64%
Cc1ccc(NCC(=O)N/N=C/c2cc(O)ccc2[N+](=O)[O-])cc1 | -2.04%
O=C(CCc1nc2sc3c(c2c(=O)[nH]1)CCCC3)Nc1cccc(Cl)c1 | -13.7%
CSc1nsc(SC)c1C(=O)Nc1ccc(Cl)cc1 | 7.75%
C#CCOCCOCCOCCNc1nc(N2CCN(C(=O)[C@H](CCCCN)n3cc(C(N)[C@H](C)CC)nn3)CC2)nc(N2CCN(C(=O)[C@H](CCC(=O)O)n3cc(C(N)[C@H](C)CC)nn3)CC2)n1.Cl (stereo partly shown) | 13.5%
Cc1ccc(S(=O)(=O)NCc2cccnc2)cc1C | -0.942%
O=C(Nc1cccc(S(=O)(=O)N2CCCCC2)c1)c1cccs1 | -18.8%
CCN(CCCn1c(=S)[nH]c2ncccc2c1=O)c1ccccc1 | 5.02%
Cc1ccc(S(=O)(=O)Nc2cccc(C(=O)NCC(C)(C)N3CCOCC3)c2)cc1F | -50.3%
COc1ccc(S(=O)(=O)N2CCN(C(=O)c3cccnc3)CC2)cc1OC | 7.39%
CCOC(=O)c1ccc(Nc2c(OCC)c(=O)c2=O)cc1 | -15.4%
N/C(=N\OC(=O)COc1ccc(Cl)cc1Cl)c1ccccn1 | 3.46%
CCN(CC)S(=O)(=O)N1CCC(C(=O)NCc2ccc3c(c2)OCO3)CC1 | -1.84%
Cc1cc(=S)[nH]c2c(C)cccc12 | 17.4%
COc1ccc(-c2cc(C#N)nc(Cl)n2)cc1 | -2.88%
CN1CCN(CCCNC(=O)c2nnc(Cc3c(F)cccc3Cl)o2)CC1 | -3.44%
CCCN(CC(=O)Nc1ccc(Cl)cc1Cl)C(=O)/C=C/c1ccco1 | -38.5%
O=C(CCCNC(=O)c1ccc(Cl)cc1)Nc1cccc(F)c1 | 8.06%
O=C(NCCc1cccnc1)C1CCC(=O)N(CCc2cccc(F)c2)C1 (stereo not shown) | 7.99%
Cc1ccc(S(=O)(=O)c2c(C)cc(C)nc2N2CCOCC2)cc1 | -0.51%
CC(C)(C)C(=O)/C=C(\N)c1ccccn1 | -1.36%
Cc1ccc(-n2c(C)nnc2SCC(=O)NC2CC2)cc1 | 4.93%

Compound | hERG current change (%, negative = inhibition) at 10uM
CCn1nccc1C(=O)Nc1cc(Cl)cc(Cl)c1 | -12.8%
Cc1ccc(C(=O)Nc2nnc(S(=O)(=O)Nc3ccccc3C)s2)cc1C | 10.8%
NC(=O)C[n+]1cccc(C(N)=O)c1.[Cl-] | 12.8%
O=C(Nc1ccccc1)/C(=C/c1ccccc1)c1ccccc1 | -11.5%
Cc1ccc(NC(=O)CCN2C(=O)c3cccc4cccc(c34)C2=O)cc1 | 9.71%
CCN(CC)C(=O)Cn1cc(C(=O)C(=O)N2CCN(c3ccc([N+](=O)[O-])cc3)CC2)c2ccccc21 | -65.8%
O=C(Nc1ccc(Cl)c(S(=O)(=O)N2CCOCC2)c1)c1cc(=O)[nH]c2ccccc12 | -2.26%
CCc1cc2ccc(OC)cc2nc1SCC(=O)N1CCN(C(=O)c2ccco2)CC1 | -49.1%
[Cl-].c1ccc(-c2c[nH]c3[n+]2CCCCC3)cc1 | -2.27%
O=C(CC12CC3CC(CC(C3)C1)C2)NCc1ccc(F)cc1 | 17.4%
COc1ccc(CCNCc2cccn2C)cc1OC.Cl | 11.7%
CC(=O)c1cc2c(cc1NC(=O)CN1CCCCCC1)OCO2.O=C(O)C(=O)O | -6.97%
O=C1CN(C(=O)c2ccccc2Cl)c2ccccc2N1 | 12.5%
O=C(CN1CCC(n2nnc3cc(F)ccc32)CC1)NCCc1ccccc1 | -41.5%
O=C(CN1C(=O)c2ccccc2S1(=O)=O)c1ccccc1F | -0.476%
CN(Cc1cccs1)C(=O)CSc1nc(N)cc(N)n1 | 17.4%
O=C(NCc1ccc(Cl)cc1)N1CCN(S(=O)(=O)c2ccccc2)CC1 | 0.401%
CN(C)CCN(Cc1ccco1)C(=O)c1cc2c(Cl)nc3ccccc3c2s1 | -70.1%
COCCn1c(-c2ccc(OC)c(OC)c2)nc2ccccc21 | -21.6%
O=C(NC(=S)N1CCCCCC1)c1ccc(Cl)cc1Cl | 22.9%
Cc1cccc(OCCOC(=O)C2CCN(S(=O)(=O)c3ccc(C)c(C)c3)CC2)c1 | 10.7%
O=C(CCC(=O)CCN1CCCCC1)CCN1CCCCC1 | -3.13%
CC1=C(C)/C(=N\OC(=O)/C=C/c2ccccc2)C=CC1=O | 16.3%
O=C(NNC(=O)c1ccccc1[N+](=O)[O-])c1ccc(NC(=O)c2ccccc2)cc1 | 8.72%
O=C(CNc1cccc(Cl)c1)NNC(=S)NCc1ccccc1 | 16.5%
CCN1CCN(S(=O)(=O)c2ccc(Cl)c(C(=O)N(C)C(c3ccccc3)c3ccccc3)c2)CC1 | -50.5%
Br.FC(F)(F)c1ccc(N2CCOCC2)c(NC2=NCCCCC2)c1 | 6.39%
